Experimental data as given in the supplement of paper PMC11876631.
Numbering of substitutions follows the chain as printed. In names and notes the source's numbering stands. ± gives the standard deviation of the averaged measurements. Laboratory Escherichia coli strains with one amino-acid change in an essential protein, pooled on minimal glucose agar with carbenicillin or gentamicin at twice the control MIC (plus kanamycin and chloramphenicol for the plasmids), 48 h. Fold change of barcode share against drug-free plates; higher = less susceptible. Active = above 20 in both replicates (the paper's putatively resistant). '<' = one read or none on drug, '>' = one read or none on a drug-free plate. Shares are relative, so most strains fall below 1 when a few take over. Listed are strains with at least 15 reads on both drug-free plates, and hits; most hits rest on fewer reference reads. Replicate rank correlation about 0.5. Edits are read from barcodes.

B1: can L149A (protein)
chain: MKDIDTLISNNALWSKMLVEEDPGFFEKLAQAQKPRFLWIGCSDSRVPAERLTGLEPGELFVHRNVANLVIHTDLNCLSVVQYAVDVLEVEHIIICGHYGCGGVQAAVENPELGLINNWLLHIRDIWFKHSSLLGEMPQERRLDTLCEANVMEQVYNLGHSTIMQSAWKRGQKVTIHGWAYGIHDGLLRDLDVTATNRETLEQRYRHGISNLKLKHANHK
B2: tilS I152Q (protein)
chain: MTLTLNRQLLTSRQILVAFSGGLDSTVLLHQLVQWRTENPGVALRAIHVHHGLSANADAWVTHCENVCQQWQVPLVVERVQLAQEGLGIEAQARQARYQAFARTLLPGEVLVTAQHLDDQCETFLLALKRGSGPAGLSAMAEVSEFAGTRLQRPLLARTRGELVQWARQYDLRWIEDESNQDDSYDRNFLRLRVVPLLQQRWPHFAEATARSAALCAEQESLLDELLADDLAHCQSPQGTLQIVPMLAMSDARRAAIIRRWLAGQNAPMPSRDALVRIWQEVALAREDASPCLRLGAFEIRRYQSQLWWIKSVTGQSENIVPWQTWLQPLELPAGLGSVQLNAGGDIRPPRADEAVSVRFKAPGLLHIVGRNGGRKLKKIWQELGVPPWLRDTTPLLFYGETLIAAAGVFVTQEGVAEGENGVSFVWQKTLS
B3: tilS I152D (protein)
chain: B2 chain with Q152D
B4: tilS I152P (protein)
chain: B2 chain with Q152P
B5: trmD L67A (protein)
chain: MWIGIISLFPEMFRAITDYGVTGRAVKNGLLSIQSWSPRDFTHDRHRTVDDRPYGGGPGMLMMVQPARDAIHAAKAAAGEGAKVIYLSPQGRKLDQAGVSELATNQKLILVCGRYEGIDERVIQTEIDEEWSIGDYVLSGGELPAMTLIDSVSRFIPGVLGHEASATEDSFAEGLLDCPHYTRPEVLEGMEVPPVLLSGNHAEIRRWRLKQSLGRTWLRRPELLENLALTEEQARLLAEFKTEHAQQQHKHDGMA
B6: trmD L67P (protein)
chain: B5 chain with A67P
B7: trmD I71P (protein)
chain: B5 chain with A67L, I71P
B8: trmD I71Q (protein)
chain: B5 chain with A67L, I71Q
B9: trmD L213Q (protein)
chain: B5 chain with A67L, L213Q
B10: trmD L110A (protein)
chain: B5 chain with A67L, L110A
B11: trmD I71W (protein)
chain: B5 chain with A67L, I71W
B12: trmD L67Q (protein)
chain: B5 chain with A67Q
B13: trmD L67W (protein)
chain: B5 chain with A67W
B14: tmk I200A (protein)
chain: MRSKYIVIEGLEGAGKTTARNVVVETLEQLGIRDMVFTREPGGTQLAEKLRSLVLDIKSVGDEVITDKAEVLMFYAARVQLVETVIKPALANGTWVIGDRHDLSTQAYQGGGRGIDQHMLATLRDAVLGDFRPDLTLYLDVTPEVGLKRARARGELDRIEQESFDFFNRTRARYLELAAQDKSIHTIDATQPLEAVMDAARTTVTHWVKELDA
B15: tmk V204A (protein)
chain: B14 chain with A200I, V204A

Molecular target: Escherichia coli (laboratory strain)
Assay: barcode share on antibiotic plates over drug-free plates; higher = less susceptible
Conditions: antibiotic: carbenicillin; 2× MIC (3.1 µg/mL)
Experimental: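 A pool of E. coli strains, each edited to carry one amino-acid change in an essential protein, was grown for 48 h on minimal glucose agar with or without antibiotic; strain barcodes were sequenced; mean of two replicates.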

| Protein | fold change of barcode share |
| --- | --- |
| B1 | 0.434 ± 0.053 |
| B2 | 0.361 ± 0.11 |
| B3 | 0.316 ± 0.096 |
| B4 | 0.269 ± 0.0037 |
| B5 | 0.321 ± 0.16 |
| B6 | 1.46 ± 0.1 |
| B7 | 0.145 ± 0.11 |
| B8 | 0.371 ± 0.093 |
| B9 | 0.253 ± 0.054 |
| B10 | 0.359 ± 0.12 |
| B11 | 0.342 ± 0.067 |
| B12 | 0.274 ± 0.062 |
| B13 | 0.229 ± 0.0063 |
| B14 | 0.126 ± 0.073 |
| B15 | 0.211 ± 0.13 |

Same assay, conditions: antibiotic: gentamicin; 2× MIC (MIC 0.45 µg/mL)

| Protein | fold change of barcode share |
| --- | --- |
| B1 | 0.0108 ± 0.0084 |
| B2 | 0.00578 ± 0.0021 |
| B3 | 0.0053 ± 0.0015 |
| B4 | 0.00178 ± 0.0014 |
| B5 | 0.00439 ± 0.0018 |
| B6 | 0.0467 ± 0.054 |
| B7 | < 0.0145 |
| B9 | < 0.00896 |
| B10 | < 0.00851 |
| B11 | 0.00668 ± 0.004 |
| B12 | 0.00823 ± 0.00038 |
| B13 | < 0.00258 |
| B14 | < 0.00743 |
| B15 | < 0.0121 |
